Measurements reported in the supplement of paper PMC9542798.

What was measured:
Assay in all cases: minimum inhibitory concentration
Gentamicin = compound: CNC(C)C1CCC(N)C(OC2C(N)CC(N)C(OC3OCC(C)(O)C(NC)C3O)C2O)O1 [Gentamicin]
Experimental: (§1)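 Broth microdilution MIC per ISO 10932 on precoated VetMIC Lact-1 plates (tylosin, vancomycin and ampicillin plates prepared manually) against lactic acid bacteria and bifidobacteria isolates. Plates were read visually after 48 h anaerobic incubation (bifidobacteria 72 h; enterococci and staphylococci 24 h aerobic) at species-specific temperatures of 30 or 37 °C. Values prefixed with < or > are outside the tested dilution range.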

Chloramphenicol = compound: O=C(N[C@H](CO)[C@H](O)c1ccc([N+](=O)[O-])cc1)C(Cl)Cl [Chloramphenicol]
Experimental: as §1

Erythromycin = compound: CC[C@H]1OC(=O)[C@H](C)[C@@H](O[C@H]2C[C@@](C)(OC)[C@@H](O)[C@H](C)O2)[C@H](C)[C@@H](O[C@@H]2O[C@H](C)C[C@H](N(C)C)[C@H]2O)[C@](C)(O)C[C@@H](C)C(=O)[C@H](C)[C@@H](O)[C@]1(C)O [Erythromycin]
Experimental: as §1

Kanamycin = compound: NC[C@H]1O[C@H](O[C@H]2[C@H](O)[C@@H](O[C@H]3O[C@H](CO)[C@@H](O)[C@H](N)[C@H]3O)[C@H](N)C[C@@H]2N)[C@H](O)[C@@H](O)[C@@H]1O [Kanamycin]
Experimental: as §1

Clindamycin = compound: CCC[C@@H]1C[C@@H](C(=O)N[C@@H]([C@H]2O[C@H](SC)[C@H](O)[C@@H](O)[C@H]2O)[C@H](C)Cl)N(C)C1 [Clindamycin]
Experimental: as §1

Ampicillin = compound: CC1(C)S[C@@H]2[C@H](NC(=O)[C@H](N)c3ccccc3)C(=O)N2[C@H]1C(=O)O [Ampicillin]
Experimental: as §1

Streptomycin = compound: CN[C@@H]1[C@H](O[C@H]2[C@H](O[C@H]3[C@H](O)[C@@H](O)[C@H](N=C(N)N)[C@@H](O)[C@@H]3N=C(N)N)O[C@@H](C)[C@]2(O)C=O)O[C@@H](CO)[C@H](O)[C@H]1O [Streptomycin]
Experimental: as §1

Neomycin = compound: NC[C@@H]1O[C@H](O[C@H]2[C@@H](O)[C@H](O[C@@H]3[C@@H](O)[C@H](N)C[C@H](N)[C@H]3O[C@H]3O[C@H](CN)[C@@H](O)[C@H](O)[C@H]3N)O[C@@H]2CO)[C@H](N)[C@@H](O)[C@@H]1O [Neomycin]
Experimental: as §1

Tetracycline = compound: CN(C)[C@@H]1C(O)=C(C(N)=O)C(=O)[C@@]2(O)C(O)=C3C(=O)c4c(O)cccc4[C@@](C)(O)[C@H]3C[C@@H]12 [Tetracycline]
Experimental: as §1
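Note: isolates derived from commercial starter, protective, probiotic or feed-additive cultures, from fermented products, from human gut mucosa or feces, and from human milk or colostrum.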

Test System	minimum inhibitory concentration (Gentamicin) [µg/mL]	minimum inhibitory concentration (Chloramphenicol) [µg/mL]	minimum inhibitory concentration (Erythromycin) [µg/mL]	minimum inhibitory concentration (Kanamycin) [µg/mL]	minimum inhibitory concentration (Clindamycin) [µg/mL]	minimum inhibitory concentration (Ampicillin) [µg/mL]	minimum inhibitory concentration (Streptomycin) [µg/mL]	minimum inhibitory concentration (Neomycin) [µg/mL]	minimum inhibitory concentration (Tetracycline) [µg/mL]
Levilactobacillus brevis IM1129 (strain group: non-starter strains)	4	8	0.5	128	0.5	2	64	8	16
Limosilactobacillus fermentum IM688 (strain group: human intestinal mucosa or faeces)	2	8	0.25	64	0.06	0.5	32	2	4
Lactiplantibacillus paraplantarum IM1346 (strain group: non-starter strains)	1	4	1	4	2	0.25	16	2	8
Leuconostoc mesenteroides IM1359 (strain group: non-starter strains)	< 0.5	4	0.25	8	0.12	2	8	< 0.5	2
Pediococcus pentosaceus IM1142 (strain group: non-starter strains)	4	8	0.5	256	0.06	4	64	8	32
Loigolactobacillus coryniformis IM230 (strain group: feed additives)	4	4	0.5	128	0.25	0.5	32	4	4
Leuconostoc mesenteroides IM1373 (strain group: starter cultures)	< 0.5	8	0.5	16	0.25	1	8	< 0.5	4
Lacticaseibacillus paracasei IM1015 (strain group: non-starter strains)	2	4	0.25	32	0.12	1	16	4	1
Levilactobacillus brevis IM1335 (strain group: non-starter strains)	1	4	1	32	16	8	16	1	16
Pediococcus pentosaceus IM1068 (strain group: non-starter strains)	4	8	0.5	256	0.12	4	64	8	32
Lactiplantibacillus plantarum IM1163 (strain group: non-starter strains)	4	4	0.5	128	2	0.5	32	2	16
Lactiplantibacillus plantarum IM1031 (strain group: non-starter strains)	8	8	0.5	256	1	2	64	8	16
Lacticaseibacillus paracasei IM695 (strain group: human intestinal mucosa or faeces)	1	4	0.12	16	0.12	1	16	2	2
Lacticaseibacillus paracasei IM1352 (strain group: non-starter strains)	4	4	0.5	64	0.25	4	32	8	1
Pediococcus acidilactici/pentosaceus/lolli IM705 (strain group: human milk or colostrum)	8	8	1	512	0.12	4	128	32	32
Pediococcus pentosaceus IM1139 (strain group: non-starter strains)	4	4	0.5	256	0.06	8	64	8	32
Lacticaseibacillus rhamnosus IM1284 (strain group: non-starter strains)	2	4	0.25	64	1	1	2	8	1
Pediococcus pentosaceus IM1144 (strain group: non-starter strains)	8	4	0.5	256	0.06	4	128	8	32
